Measurements: article PMC6451091
The list shows a part of the results. Measured with an extract: partners may take part in the binding.

Molecular target: T1, FLI1 (endogenous, THP-1 nuclear extract) (UniProt Q01543)
T1 sequence: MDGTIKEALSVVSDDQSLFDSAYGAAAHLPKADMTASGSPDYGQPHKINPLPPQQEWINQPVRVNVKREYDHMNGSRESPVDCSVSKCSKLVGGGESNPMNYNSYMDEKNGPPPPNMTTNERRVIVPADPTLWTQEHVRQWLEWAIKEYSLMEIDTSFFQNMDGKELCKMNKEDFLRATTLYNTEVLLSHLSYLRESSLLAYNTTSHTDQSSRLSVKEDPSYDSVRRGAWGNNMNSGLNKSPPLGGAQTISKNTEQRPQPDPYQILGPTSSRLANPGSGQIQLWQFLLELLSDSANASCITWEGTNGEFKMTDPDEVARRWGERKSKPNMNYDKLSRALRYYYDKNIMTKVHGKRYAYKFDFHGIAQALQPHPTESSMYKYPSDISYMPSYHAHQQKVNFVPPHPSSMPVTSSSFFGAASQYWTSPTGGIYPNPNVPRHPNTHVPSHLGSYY
Test: nuclear extract protein-binding microarray (nextPBM)
Conditions: 20 mM HEPES pH 7.9, 100 mM NaCl, 1 mM DTT, 0.2 mg/mL BSA, 0.02% Triton X-100, 2% milk, 0.4 mg/mL salmon testes DNA; 1 h; temperature not stated; high values mean tight binding; double strand, one strand shown; sequences stand for … in GCCTAGCAC…GTGCTAGGTCTTGATTCGCTTGACGCTGCTG

| Sequence | binding signal |
| --- | --- |
| CAGCCAGGGAAGTGAAAGCA | 0.812 z-score |
| TGAGAGGAGAAGCGAAACCT | 0.324 z-score |
| CTGGCAGGGAACTGAAAGTC | 0.166 z-score |
| TAAAGGAGGAACGGAAACCA | 3.44 z-score |
| TGGCAGACGAAGTGAAACTA | 0.0264 z-score |
| TGAGAGGAGAAGTGAAAGCT | 0.2 z-score |
| GATAGGAGGAACTGAAAGCT | 0.738 z-score |
| GTTAAGAGGAACTGAAAGCT | 0.989 z-score |
| CTGCCGGGGAAGTGAAAGCA | 0.913 z-score |
| CTGCCACGGAAGTGAAAGCA | 2.64 z-score |
| TGAAACAGGAACTGAAACCA | 3.36 z-score |
| CCTGAGAGGAAGTGAAACTA | 3.72 z-score |
| TGAAACAGGATGTGAAACCA | 3.89 z-score |
| AAAAAAGAGAAGTGAAACTA | 2.68 z-score |
| CTGCCAGGGAAGTGGAAGCA | 1.27 z-score |
| TTAGAGGAGAAGTGAAACCT | 0.686 z-score |
| TTTTTAGGGAAGTGAAACTA | 3.46 z-score |
| ATTAAACGGAAGTGAAACTT | 4.76 z-score |
| GCCGGGAGGAAGTGAAACTC | 3.37 z-score |
| TGAAAGAGGAACCGAAACTC | 2.69 z-score |

Test system: PU.1 (endogenous, THP-1 nuclear extract) + IRF8 (endogenous, THP-1 nuclear extract)
Test: as above
Conditions: 20 mM HEPES pH 7.9, 100 mM NaCl, 1 mM DTT, 0.2 mg/mL BSA, 0.02% Triton X-100, 2% milk, 0.4 mg/mL salmon testes DNA; 1 h; temperature not stated; high values mean tight binding; double strand, one strand shown; sequences stand for … in GCCTAGCAC…GTGCTAGGTCTTGATTCGCTTGACGCTGCTG

| Sequence | binding signal |
| --- | --- |
| CTGCCAGGGAAGTGAAACCA | 34.6 z-score |
| GAAAAGGGGAACTGAAACTA | 67.3 z-score |
| CTGGCAGGGAACTAAAACTC | -0.758 z-score |
| AGGAAGAGGAAGAGAAACTA | 7.37 z-score |
| TAAAAAAGGAAATGAAAGTA | 18.5 z-score |
| GGAAAGTGGAACTGAAACTT | 24.3 z-score |
| TCAGGGAGGAAGTGAAACTG | 65.8 z-score |
| TGGCAGAGGAAGTGAGACTA | 2.88 z-score |
| CTGGCAGGGAACTTAAACTC | 0.879 z-score |
| CTGCCAGGGAAGTGAAAGTA | 21.2 z-score |
| TGAGAAGAGAAGTGAAACCT | 19.9 z-score |
| GTGGGAGGGAAGTGAAACTC | 34.9 z-score |
| CTAAGAAGGAACTGAAACTT | 13.4 z-score |
| GTTGTGAGGAAGTGAAAATA | 1.6 z-score |
| TGGCAGAGGATGTGAAACTA | 33.9 z-score |
| CGAAAAGGGAAATGAAACCA | 38.1 z-score |
| AGAAAAGGGAACTGAAACTC | 40.7 z-score |
| AAAATCAGGAACTGAAACTA | 47.9 z-score |
| GTTTTGAGGAACTGAAACTC | 43.3 z-score |
| GAAAAAAGGAAATGAAAGTA | 16.1 z-score |

| Sequence | binding signal |
| --- | --- |
| CAGCCAGGGAAGTGAAAGCA | 5.7 z-score |
| TGAGAGGAGAAGCGAAACCT | 28.2 z-score |
| CTGGCAGGGAACTGAAAGTC | 3.08 z-score |
| TAAAGGAGGAACGGAAACCA | 3.8 z-score |
| TGGCAGACGAAGTGAAACTA | 53.1 z-score |
| TGAGAGGAGAAGTGAAAGCT | 2.08 z-score |
| GATAGGAGGAACTGAAAGCT | 3.41 z-score |
| GTTAAGAGGAACTGAAAGCT | 2.53 z-score |
| CTGCCGGGGAAGTGAAAGCA | 4.6 z-score |
| CTGCCACGGAAGTGAAAGCA | 4.82 z-score |
| TGAAACAGGAACTGAAACCA | 61.4 z-score |
| CCTGAGAGGAAGTGAAACTA | 76.8 z-score |
| TGAAACAGGATGTGAAACCA | 36.1 z-score |
| AAAAAAGAGAAGTGAAACTA | 72.3 z-score |
| CTGCCAGGGAAGTGGAAGCA | 0.377 z-score |
| TTAGAGGAGAAGTGAAACCT | 25.1 z-score |
| TTTTTAGGGAAGTGAAACTA | 80.2 z-score |
| ATTAAACGGAAGTGAAACTT | 58.7 z-score |
| GCCGGGAGGAAGTGAAACTC | 42.7 z-score |
| TGAAAGAGGAACCGAAACTC | 83.3 z-score |
